From PubChem BioAssay AID504832 (National Center for Advancing Translational Sciences (NCATS), 2011)
Among all 310,000 compounds or so, about 18,000 (5.8%) were called active. Inconclusive means that the source gave no clear call. Such entries were picked first, then a sample of the others. Calls follow the shape of the dose curve; as a rule, active = well fitted inhibition curve with a large enough effect; inconclusive = small, poorly fitted or top-dose-only effect, or another doubt; inactive = no such curve, though single readings can be large or run the other way. No potency is given beside an inconclusive call; the fits are too rough.

assay: Primary qHTS for delayed death inhibitors of the malarial parasite plastid, 48 hour incubation; settings: P. falciparum luciferase growth in erythrocytes; series mostly up to 28.7 µM; activity change, negative = inhibition: at the top concentration
How it was run: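 Read-out is firefly luciferase luminescence from an integrated reporter in P. falciparum, so falling signal marks reduced parasite growth. Infected erythrocytes were at 2% hematocrit and 0.1% parasitemia (final) in Albumax-supplemented RPMI 1640.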
% is scaled to controls: 0 for no effect and ±100 for the full control effect; potency is read from the fitted curve at half-maximal effect; tags tell the direction and shape of the fitted curve.

Row | SMILES | activity change, negative = inhibition | Potency
1 | CCCn1c(SCC(=O)NCC(=O)Nc2ccc(F)c(F)c2F)nc2ccccc2c1=O | inactive: -7.34% | 
2 | COC(=O)C1=C(C)N(Cc2ccccc2)C(=NCC(C)C)N[C@H]1c1ccc(Br)cc1 |  | inconclusive [inhibitor, partial curve, poor fit]
3 | COc1ccccc1NC(=O)COc1cccc2c1CCNC2=O |  | inconclusive [inhibitor, partial curve, poor fit]
4 | CC12CCC(C(=O)Nc3cccc(Cl)c3)(C(Br)C1=O)C2(C)C (configuration not stated) |  | inconclusive [inhibitor, partial curve, poor fit]
5 | S=C1NCN(C2CCCCC2)CN1CCc1ccccc1 |  | active: 4.65 µM
6 | CC(=O)Nc1cccc(-c2csc(NCc3ccco3)n2)c1 |  | inconclusive [inhibitor, single point]
7 | O=C1C2CCCN2C(c2cccs2)N1c1ccc(Cl)cc1 (configuration not stated) | inactive: 2.58% | 
8 | CC1(C)Cc2c(sc3nc4n(-c5ccccc5)cnn4c(=O)c23)CO1 |  | inconclusive [inhibitor, full curve, poor fit]
9 | O=C(Nc1c2c(nn1-c1ccccc1)CS(=O)(=O)C2)c1ccc2c(c1)OCO2 |  | inconclusive [inhibitor, full curve, poor fit]
10 | Cc1cc(C)nc(NC(=O)c2cc(-c3ccc4c(c3)OCO4)nc3ccccc23)c1 |  | inconclusive [inhibitor, partial curve, poor fit]
11 | O=C(N/C(=C/c1cn(-c2ccccc2)nc1-c1ccccc1)C(=O)N1CCOCC1)c1ccc(Cl)cc1Cl |  | active: 6.57 µM
12 | O=C(Nc1ccc(C(F)(F)F)cc1)c1csc(-c2ccncc2)n1 |  | inconclusive [inhibitor, single point]
13 | O=C(/C=C/c1ccc(Cl)cc1)Nc1ccc(N2CCCCC2)cc1 | inactive: -0.279% | 
14 | O=S(=O)(NCC(O)c1ccccc1)c1ccc(-c2ccccn2)s1 (configuration not stated) |  | inconclusive [inhibitor, single point]
15 | Cc1cc(C2C(=O)CC(=O)CC2c2ccccc2)on1 (configuration not stated) | inactive: -11.7% | 
16 | COC(=O)C1=C(C)NC(C)=C(C(=O)OC(C)C)[C@H]1c1cccc2nonc12 |  | active: 4.55 µM
17 | CC1=Nc2cc([N+](=O)[O-])ccc2NC(C)(C)C1 |  | inconclusive [inhibitor, single point]
18 | CCc1c(C)nc(N)n2c(SCC(=O)N3CCN(c4ccccc4OC)CC3)nnc12 | inactive: 16% | 
19 | O=C(Nc1ccc(Cn2ccnc2)cc1)c1cccc(C(F)(F)F)c1 |  | inconclusive [inhibitor, single point]
20 | Cc1sc2ncnc(Oc3ccc(-n4ccnc4)cc3)c2c1C |  | inconclusive [inhibitor, single point]
21 | CCN(CC)CCN1C(=O)c2oc3ccccc3c(=O)c2C1c1cccc(Br)c1 (configuration not stated) |  | inconclusive [inhibitor, full curve]
22 | CCOc1cc(C(=O)N2CCN(c3ccccc3)CC2)cc(OCC)c1OCC |  | inconclusive [inhibitor, partial curve]
23 | COc1cc(OC)cc(C(=O)Nc2ccc(Cn3ccnc3)cc2)c1 |  | inconclusive [inhibitor, single point]

Row | SMILES | activity change, negative = inhibition | Potency
24 | Cc1ccc(/C=C2\SC(=S)N(CCC(=O)NNC(=O)c3ccncc3)C2=O)cc1 | inactive: 38.8% | 
25 | COc1ccc(C2=Nn3c([n+](C)c4ccccc43)SC2)cc1 |  | active: 0.828 µM
26 | O=C(Nc1ccc([N+](=O)[O-])cc1)N1CCN(C(=O)C2CCCO2)CC1 (configuration not stated) |  | inconclusive [inhibitor, partial curve, poor fit]
27 | O=C(COC(=O)c1ccc([N+](=O)[O-])s1)NC(c1ccccc1)c1ccccc1 |  | inconclusive [inhibitor, partial curve, poor fit]
28 | O=C1C2C3C=CC(CC3)C2C(=O)N1/N=C/c1ccco1 (configuration not stated) | inactive: 24.5% | 
29 | Cc1c(Cl)ccc2c(C(=O)NCCCn3nccc3C)cc(-c3ccccn3)nc12 |  | inconclusive [inhibitor, partial curve, poor fit]
30 | Cc1c(Cl)cccc1NC(=S)N(CCN(C)C)C(C)c1ccco1 (configuration not stated) |  | inconclusive [inhibitor, partial curve]
31 | CCN(CC)c1ncnc2c1[nH]c1ccccc12 |  | active: 4.15 µM
32 | CCOC(=O)CCc1c(C)nc2c(c(C)nn2-c2ccc(C)cc2)c1C |  | inconclusive [inhibitor, partial curve]
33 | Cc1ccc(-n2cc(CN(C)Cc3nccn3C)c(-c3cccc(C)c3)n2)cc1 |  | inconclusive [inhibitor, partial curve]
34 | CCOc1ccccc1CN1CCN(C2CCN(c3ccccc3F)CC2)CC1CCO (configuration not stated) |  | inconclusive [inhibitor, single point]
35 | N/C(=N\c1nc2c(c(=O)[nH]1)CCC2)Nc1cccc2ccccc12 |  | inconclusive [inhibitor, partial curve, poor fit]
36 | CCC1CCCCN1C(=S)NC(=O)c1cc(Br)ccc1Cl (configuration not stated) |  | inconclusive [inhibitor, single point]
37 | CC1CCc2cc(F)ccc2N1C(=O)C1(C)CC1(Cl)Cl (configuration not stated) | inactive: -26.5% | 
38 | COc1cc(OC)cc(-c2c(-c3ccsc3)c3cc(Br)ccc3n2C)c1 |  | inconclusive [inhibitor, single point]
39 | COc1cc(-c2cc(C(=O)Nc3ccc(N4CCOCC4)cc3)c3ccccc3n2)cc(OC)c1OC |  | active: 10.4 µM
40 | CCCn1c(C2CCCN2c2nc(-c3ccc(OC)cc3)cs2)nc2ccccc21 (configuration not stated) |  | inconclusive [inhibitor, partial curve, poor fit]
41 | COc1ccc([C@@H]2CC=C(C(=O)O)[C@H](c3ccccc3F)N2S(=O)(=O)c2ccccc2C)cc1 |  | inconclusive [inhibitor, single point]
42 | O=C(NCCc1ccccc1)C1CCC(CNS(=O)(=O)c2cccc3cccnc23)CC1 (configuration not stated) |  | inconclusive [inhibitor, single point]
43 | Cc1ccc(C)c(-n2cc(CN3CCN(C(=O)c4ncn[nH]4)CC3)c(-c3ccccc3)n2)c1 |  | inconclusive [inhibitor, partial curve]
44 | Cc1c(Cl)cccc1NC(=O)N1CCCN(c2nc(-c3ccccc3)ns2)CC1 | inactive: -29.1% | 
45 | COc1ccc(N(C(=O)/C=C/C(=O)Nc2cc(C)on2)C(C(=O)NC2CCCC2)c2ccccc2C)cc1 (configuration not stated) |  | active: 9.28 µM
46 | CCOC(=O)c1c(-c2ccccc2)nnn1-c1nc(OCC)nc(N2CCCCC2)n1 |  | inconclusive [inhibitor, partial curve]

Row | SMILES | activity change, negative = inhibition | Potency
47 | Cc1ccccc1NC(=O)CCCn1nc(C)c2c(C)n(-c3ccccc3)nc2c1=O | inactive: -12.4% | 
48 | CCOc1ccccc1NC(=O)[C@@H](NC(=O)c1ccccc1F)C(C)C | inactive: -34.1% | 
49 | CC(C)OP(=O)(OC(C)C)C1(NS(=O)(=O)c2ccc(Cl)cc2)C=C(Cl)C(=O)C(Cl)=C1 |  | inconclusive [inhibitor, single point]
50 | CC(=O)O[C@H]1CC(=O)OC(C)(C)C2CC(=O)[C@]3(C)C(CC[C@@](C)([C@@H](O[C@@H]4O[C@H](CO)[C@@H](O)[C@H](O)[C@H]4O)c4ccoc4)[C@@]34O[C@@H]4C(=O)O)[C@]21C (some centres not stated) | inactive: 1.68% | 
51 | COc1ccc(NC(=O)CN(C)C(=O)c2cn(-c3ccccc3)nc2-c2ccc(F)cc2)cc1 |  | active: 11.7 µM
52 | CC(C)(C)NC(=O)COc1coc(CN2CCN(Cc3ccccc3)CC2)cc1=O | inactive: -0.0322% | 
53 | Cc1ccc(S(=O)(=O)Oc2cc(N)c3c(n2)CCC3)cc1 |  | inconclusive [inhibitor, single point]
54 | CSc1ccc(C(=O)C2CCCN(Cc3cccn3-c3cccnc3)C2)cc1 (configuration not stated) |  | active: 10.4 µM
55 | Cc1ccc(-c2cc(C(=O)OCC(=O)Nc3cc(C)on3)c3ccccc3n2)c(C)c1 |  | inconclusive [inhibitor, single point]
56 | O=C(NCC(=O)N(CC1CCCO1)C(C(=O)NC1CCCCC1)c1ccccc1)c1ccco1 (configuration not stated) |  | inconclusive [inhibitor, partial curve, poor fit]
57 | CCNc1nc(NCC)nc(SCCOC(=O)Nc2ccccc2)n1 |  | inconclusive [inhibitor, single point]
58 | C=C(C)C(=O)Nc1cccc(C2=NOC3(C2)C[C@@H](C(N)=O)N(C(=O)c2cc([N+](=O)[O-])cc([N+](=O)[O-])c2C)C3)c1 (some centres not stated) |  | inconclusive [inhibitor, single point]
59 | CCn1c(CSc2nc(C)cc(C)n2)nnc1SCC(N)=O |  | inconclusive [inhibitor, full curve, poor fit]
60 | CCNc1nc(N)nc(-c2cc(Cl)ccc2O)n1 | inactive: 284% | 
61 | CCC(C(=O)C(C)C(O)C(C)CCc1ccc(C)c(O)c1C(=O)O)C1OC(CC)(C2CC[C@@](O)(CC)C(C)O2)CC1C (some centres not stated) |  | active: 0.379 µM
62 | CCc1ccc(NC(=O)N2CCN(c3ccccc3)CC2)cc1 |  | inconclusive [inhibitor, partial curve, poor fit]
63 | Cc1cc(-c2nnc(SCC(=O)Nc3ccccn3)o2)no1 | inactive: 89.3% | 
64 | COc1ccc2c(c1OC)C(=O)N1N=C(c3ccc(Br)cc3)CC21 (configuration not stated) |  | inconclusive [inhibitor, partial curve]
65 | CN(C)c1ccc(NC(=S)NCC2CCCO2)cc1 (configuration not stated) | inactive: 78.4% | 
66 | Cc1ccc2nc(NC(=O)Cn3cc4c(n3)CCCCC4)sc2c1 | inactive: 45.8% | 
67 | O=C(ONC1=NCCCCC1)c1ccc([N+](=O)[O-])cc1 |  | inconclusive [inhibitor, single point]
